Whole data set: some 2,700 sequences, median “arbitrary fluorescence units” near 4,100, cut for the highest 2% near 54,000. This is one part of the list.
The sequences below were run against T1, ETS1 (UniProt P14921) (assay: ETS1 binding intensity (PBM fluorescence) (arbitrary fluorescence units); higher = stronger binding). Details: ETS1 concentration 10 nM.
T1 sequence: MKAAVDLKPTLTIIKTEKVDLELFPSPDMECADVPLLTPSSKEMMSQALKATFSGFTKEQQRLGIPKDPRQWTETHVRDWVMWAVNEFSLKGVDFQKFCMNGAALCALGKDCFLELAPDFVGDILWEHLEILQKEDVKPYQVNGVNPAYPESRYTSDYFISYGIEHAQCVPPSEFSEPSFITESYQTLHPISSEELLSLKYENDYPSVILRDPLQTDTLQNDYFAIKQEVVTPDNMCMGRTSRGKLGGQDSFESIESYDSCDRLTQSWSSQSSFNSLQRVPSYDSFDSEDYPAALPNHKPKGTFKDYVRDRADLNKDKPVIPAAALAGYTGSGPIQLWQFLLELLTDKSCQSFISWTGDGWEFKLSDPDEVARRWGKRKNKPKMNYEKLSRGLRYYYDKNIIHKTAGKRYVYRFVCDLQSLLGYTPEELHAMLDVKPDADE
Procedure: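 gcPBM on wild-type 36-bp genomic probes with two neighbouring ETS1 sites (4-24 bp apart). Recombinant human ETS1 (10 nM) was detected with anti-ETS1 antibody fluorescence. Values are medians over 3 replicate spots. The probes sit in constant array flanks that are not printed.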
With TGGCAGGAAGACTGCCTCAGCATCTATTTCCTTGCA the ETS1 binding intensity was 278.
Sequence ATCTCACTTCCCTTCCTGCCTTCCTTGGAGCTTCTC has an ETS1 binding intensity of 8740.
Work on CTTGCAGGAAACTACAACTCCCGAAGGGGAAATGGG yielded an ETS1 binding intensity of 687.
For AGGACTTCCCAGACCTCTCCACAATGCAGGAAGTAA, the ETS1 binding intensity was 1280.
AGCCACATAGGAAGCAGGTGGTGTTTCCTGGGCAGG showed an ETS1 binding intensity of 504.
TCACATCCCCAGGTGAGTGGCAACCACCGGAAGTGG gave an ETS1 binding intensity of 9920.
For TGGAGGAAGTTGACTCAGATTGCTGCACTTCCTAGA, the ETS1 binding intensity was 777.
In the case of GGGAAAGACCGCTTCCGGTGCTTCCGTCGCTCCTTG, the ETS1 binding intensity is reported as 38300.
Work on GAGAGCCTGCTGTTTCCGCGGATGCTTTACCTTGCC yielded an ETS1 binding intensity of 420.
Sequence GTCGCGGAAGCCGGCGCCTGGCCACCCGGAAGCCAC has an ETS1 binding intensity of 823.
For AGAGCCAGGAAGCCTCCTGGAGGGCCGGAAACTTTC, the ETS1 binding intensity was 563.
ATCTGAGGAGGCAGGAAGGCGGAAAGCGAAGGGAGT gave an ETS1 binding intensity of 326.
TGCACAAGGAAATGCCATAAAGAAACATCCCGTCCT was tested, and the ETS1 binding intensity was 373.
GGAGATAATTTCCGGGTCCCGGCAGGAAAGGGTCAG gave an ETS1 binding intensity of 25700.
Work on CCGTGCGGAAGAAAAGGGTTGGCTATTTCCGTGGCC yielded an ETS1 binding intensity of 234.
Sequence GCCCACTTCCTGCGGATGTGGATGCTGGCAACACCC has an ETS1 binding intensity of 37800.
For GCTGGGTCACCAGGAAGAAAAGGAAATGGATTTGGT, the ETS1 binding intensity was 248.
ACACAAATTTAGGAAATGTTGCTTCCTTTCCCACCA showed an ETS1 binding intensity of 387.
CTGGAGGGGCAAGGAAACACAGGAAATTGCAGTTTC showed an ETS1 binding intensity of 2070.
Sequence CTCACATCCTGTGTTTGAAAGAAAAATCATCCTGCC has an ETS1 binding intensity of 35100.
AGGCGAGAGGAGGAAGCGGGCGGAAGCCGGTGGCTC gave an ETS1 binding intensity of 781.
With CAACCTCAGCCGGAAACTACATTTCCCAGCAGGTCG the ETS1 binding intensity was 3970.
In the case of GGTTAGCTTCCTCATAAGGCATCGTTTCCGTGGGTG, the ETS1 binding intensity is reported as 900.
Sequence TGGAGACTTCCTCCCGCTCGCAAAGAGGAAACCACT has an ETS1 binding intensity of 12200.
Work on TCCTCGGAAGCCGGCTTCGCCACGTAACTTCCCGGG yielded an ETS1 binding intensity of 229.
With GCGAGGGTGGCTGCTTCCTTCCTGTCCAGAAAACAC the ETS1 binding intensity was 5000.
Work on CATTTCCTGGAATTCTCTATAACTCTTCCTGCACAG yielded an ETS1 binding intensity of 27100.
In the case of CAGCAGGCCTTCCTGCAGGCCACTTCCCTTCAGAGA, the ETS1 binding intensity is reported as 2040.
AGTGACCCCACAAGTTCCCTTCCTGAAGGAAGTATT showed an ETS1 binding intensity of 204.
GTTATGATAACGGAACTACAGTTCCTCCAGGATGGA was tested, and the ETS1 binding intensity was 195.
For CGGGTCGGAAATGGTGGTCACGAGCGCTTCCGGGTC, the ETS1 binding intensity was 3270.
GACTCTCCAGGAAGAAGGGTAATTTCCTGCCTCCTT gave an ETS1 binding intensity of 3110.
In the case of CCGGGGTCTCCTTCCTGACCACTTCCTGCCTTTATT, the ETS1 binding intensity is reported as 11500.
With CTTGCTTCCGGTGGCTTCACTCACATGCTTCCTCTG the ETS1 binding intensity was 39800.
AGGGCAGACAGGATATGGTGCGAGGAAGTCTGGGGT was tested, and the ETS1 binding intensity was 3830.
CAGTTCTGGGCTTCCCGGCTGAGGAAATGCTGTCAC showed an ETS1 binding intensity of 243.
GCGCTGAGCCTTCCGTGCGACCGGATTGGCTGTCGC was tested, and the ETS1 binding intensity was 205.
With CGTGAGCGGAAGCGGCGCCATTCGTCTTCCGAGCGC the ETS1 binding intensity was 6670.
TTTCTGGCAGGAAGCCACTGGGCGGAAGTTTGCTGA showed an ETS1 binding intensity of 2840.
AGGAGGAGGAAGTGGAGGGTAAGTGCTTCCGGGTCC gave an ETS1 binding intensity of 3550.
CAGCACGACTTCCTGGAGCGGGCCGGAAGTGACAAC gave an ETS1 binding intensity of 21000.
Work on CTGGCCCTGGCCCTTCCTGCTTCCTGTGACAGTAGC yielded an ETS1 binding intensity of 8310.
Sequence TGAAACAGGAAGTCAGCTTCACAGCAGGAAGCAGAC has an ETS1 binding intensity of 16400.
AGTGACAGGAGGAAGTAGGAGAGGAAATGATGCATG showed an ETS1 binding intensity of 1350.
ACCCGGAAGCGCTTCACCCAGCCTGAGCGGAAGAAC gave an ETS1 binding intensity of 5640.
ACCCCGGAAGCACATCCTTCATCCTCTACCTTCCTT was tested, and the ETS1 binding intensity was 15700.
Sequence CGGGACAGGAAGTGTGGACAGGCTCCTTCCTGTTTG has an ETS1 binding intensity of 15000.
GGACAGGAAACCTCTCTGAGTCTCGATTTCCTCCGT showed an ETS1 binding intensity of 2730.
With CAAAAGATTGAAGGAAGTGAGGAAGTCAGCTGGCTT the ETS1 binding intensity was 545.
CAGCTCCGGAAATGCTCATAGGCTCCGGAAATGCTC gave an ETS1 binding intensity of 13000.
In the case of CCGCCCCTTCCGCCGCGGGCGGCAGCTTCCGGCTCG, the ETS1 binding intensity is reported as 11600.
CGTCCCACATCCGCCGACACGCCCCTTCCGGCCTAA was tested, and the ETS1 binding intensity was 20000.
For CCGAAGCGCTTCCTGTGCCAGGTTTCCGGCTCCGGG, the ETS1 binding intensity was 20100.
For GCCTATTGAAGGAAGCTCAGATTTCCTGGCCTGGCA, the ETS1 binding intensity was 870.
For AGGGCTGTGGGCGGAAGTGGGGAAGTTTGTGGCGTG, the ETS1 binding intensity was 8600.
For CATCACCCCATCCTGAGCCCAGCCGGATGTGGCTAA, the ETS1 binding intensity was 2780.
ACACTCCCCTGCTTCCTTTACTTCCTGGAGCCCCAG gave an ETS1 binding intensity of 4950.
CCCGGAGTTCCGCGCGGCGCCAGCCCTTCCGCCACG gave an ETS1 binding intensity of 375.
In the case of GCGCCTGATTCACTTCCCTCTTCCGCTCTGAGGCGT, the ETS1 binding intensity is reported as 4680.
AGCGGGCCGCTGCTTCCTCAGGAAGGGTGGAGGCGG showed an ETS1 binding intensity of 244.
For CAGGCGGATGCTCTGATTCACCAAAAGCTTCCTGAA, the ETS1 binding intensity was 553.
AAAGCCGGAAGTGCGTCACACCCGCCTTCCGGAGCT gave an ETS1 binding intensity of 24900.

— the supplement of paper PMC10681739
